Data taken from a compilation of properties of binary mixtures (doi:10.1039/c8ra04127j).
The densities may have been worked out from excess volumes.

Assay: xn = mol fraction of the nth substance listed
Details: 100 kPa

C[N+](C)(C)CCC[n+]1ccccc1.N#C[N-]C#N.N#C[N-]C#N + CC#N
mass density [kg/m3]
Details	x1 = 0.0999	x1 = 0.1999	x1 = 0.2998	x1 = 0.3997	x1 = 0.4999	x1 = 0.6002	x1 = 0.7001	x1 = 0.7998	x1 = 0.8997	x1 = 1
283.15 K	940.9	1020.7	1070.2	1098.7	1117.5	1130.8	–	1150	1157.6	1164
288.15 K	937.1	1017.1	1066.9	1095.6	1114.3	1127.7	1138.3	1147.1	–	–
293.15 K	933.2	–	1063.6	–	1111.2	1124.7	1135.2	1144.1	1151.7	–
298.15 K	929.4	1009.9	1060.3	1089.4	1108.1	1121.6	1132.2	1141.2	–	1155
303.15 K	–	1006.4	–	1086.2	1105	1118.6	1129.2	–	1145.9	1152.1
308.15 K	921.5	–	1053.7	1083.1	1102	1115.5	1126.2	1135.2	1143	1149.2
313.15 K	917.6	999.3	1050.5	1080	1098.9	1112.6	1123.2	1132.3	1140.1	1146.3
318.15 K	913.8	995.8	–	1076.7	1096	1109.6	1120.2	1129.3	1137.2	1143.5
323.15 K	–	992.3	1044	1073.5	1093.1	1106.6	1117.4	1126.4	1134.4	–
328.15 K	905.4	988.9	1040.8	1070.4	1090.2	1103.7	1114.5	1123.6	1131.6	1137.9
333.15 K	901.7	–	1037.7	1067.4	1087.2	–	1111.7	1120.8	1128.9	1135.1

CC#N + C[N+](C)(C)CCC[N+]1(C)CCCCC1.N#C[N-]C#N.N#C[N-]C#N
x2 = 0
Details	mass density [kg/m3]
283.15 K	792.8
293.15 K	782.1
308.15 K	765.8
313.15 K	760.3
318.15 K	754.8
323.15 K	749.2
328.15 K	743.6

CC#N + C[N+](C)(C)CCC[n+]1ccccc1.N#C[N-]C#N.N#C[N-]C#N
x2 = 0
Details	mass density [kg/m3]
283.15 K	792.8
288.15 K	787.5
293.15 K	782.1
298.15 K	776.7
303.15 K	771.3
308.15 K	765.8
313.15 K	760.3
318.15 K	754.8
323.15 K	749.2
